# Results: PubChem BioAssay AID1347165 (National Center for Advancing Translational Sciences (NCATS), 2019)
# Screen size: about 220,000 compounds; about 5,700 (2.6%) were called active. Inconclusive results, whose numbers are uncertain, are shown with a selection of clear calls. Calls come from the whole dose curve; as a rule, active = well fitted inhibition curve with a large enough effect; inconclusive = small, poorly fitted or top-dose-only effect; inactive = no such curve, though single readings can be large or run the other way. Potencies of inconclusive entries are doubtful fits and often do not repeat.
# Molecular target: Lysine-specific demethylase 5B (Homo sapiens) (UniProt Q9UGL1)
# Test: Primary screen for KDM5B Histone Demethylases FDH-coupled qHTS; note: nearly all actives have a fitted effect of over 70% in size; for activity change, negative = inhibition: 0% is about no effect
# Details: FDH-coupled NADH fluorescence (FDH is formaldehyde dehydrogenase); activity change, negative = inhibition: at 57.7 µM (top of the series) unless noted
# Outline: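 Here, H3K4me3 peptide (12.5 µM in substrate mix) is demethylated by KDM5BΔAP, 200 nM final, after 10 min compound exposure. Formaldehyde product is coupled through FDH (0.25 U/mL in mix) to NADH fluorescence; 30-min ΔRFU feeds dose-response curves.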
# Potency is the fitted concentration of half-maximal effect; tags give direction and shape of the fitted curve.
# Sequence of UniProt Q9UGL1 (Q9UGL1 whole entry, looked up): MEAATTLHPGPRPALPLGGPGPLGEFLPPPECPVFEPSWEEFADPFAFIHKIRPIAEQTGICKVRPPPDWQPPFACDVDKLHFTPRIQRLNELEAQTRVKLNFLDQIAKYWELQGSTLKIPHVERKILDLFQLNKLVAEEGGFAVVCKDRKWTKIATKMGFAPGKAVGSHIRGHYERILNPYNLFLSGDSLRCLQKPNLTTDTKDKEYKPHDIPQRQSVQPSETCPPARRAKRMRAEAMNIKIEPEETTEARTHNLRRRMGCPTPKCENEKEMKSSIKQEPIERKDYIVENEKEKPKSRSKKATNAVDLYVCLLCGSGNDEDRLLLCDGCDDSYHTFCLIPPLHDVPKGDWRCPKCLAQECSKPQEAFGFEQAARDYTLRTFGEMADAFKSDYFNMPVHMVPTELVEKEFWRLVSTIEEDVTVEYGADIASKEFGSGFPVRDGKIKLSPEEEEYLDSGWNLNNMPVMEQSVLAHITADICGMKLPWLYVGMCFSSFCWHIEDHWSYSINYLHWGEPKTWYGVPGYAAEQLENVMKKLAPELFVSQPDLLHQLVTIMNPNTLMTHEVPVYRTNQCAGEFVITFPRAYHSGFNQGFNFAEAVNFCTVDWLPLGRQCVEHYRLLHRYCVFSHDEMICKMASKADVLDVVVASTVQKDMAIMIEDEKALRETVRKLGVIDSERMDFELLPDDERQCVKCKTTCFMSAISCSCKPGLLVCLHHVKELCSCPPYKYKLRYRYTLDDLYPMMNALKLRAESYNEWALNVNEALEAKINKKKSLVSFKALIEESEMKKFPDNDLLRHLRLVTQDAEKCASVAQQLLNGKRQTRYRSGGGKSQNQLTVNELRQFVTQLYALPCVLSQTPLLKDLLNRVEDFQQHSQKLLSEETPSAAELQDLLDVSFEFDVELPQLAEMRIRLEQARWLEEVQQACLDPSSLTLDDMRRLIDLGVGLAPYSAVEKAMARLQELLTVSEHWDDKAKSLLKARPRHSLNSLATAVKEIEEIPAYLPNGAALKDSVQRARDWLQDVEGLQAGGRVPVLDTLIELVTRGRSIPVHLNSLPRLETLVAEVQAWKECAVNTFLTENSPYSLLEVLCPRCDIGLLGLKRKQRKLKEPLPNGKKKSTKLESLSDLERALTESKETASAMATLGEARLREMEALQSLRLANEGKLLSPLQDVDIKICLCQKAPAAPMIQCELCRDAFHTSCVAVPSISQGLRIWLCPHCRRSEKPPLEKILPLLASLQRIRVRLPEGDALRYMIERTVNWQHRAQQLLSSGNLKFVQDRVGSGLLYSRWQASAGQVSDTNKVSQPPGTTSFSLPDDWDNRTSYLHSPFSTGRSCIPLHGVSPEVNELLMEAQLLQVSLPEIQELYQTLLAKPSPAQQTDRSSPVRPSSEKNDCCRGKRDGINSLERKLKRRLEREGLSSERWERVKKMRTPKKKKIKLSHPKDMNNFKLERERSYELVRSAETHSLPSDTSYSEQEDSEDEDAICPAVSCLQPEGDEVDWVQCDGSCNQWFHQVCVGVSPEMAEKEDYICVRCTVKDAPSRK
Structure (SMILES),"activity change, negative = inhibition",Potency
Cc1ccc(S(=O)(=O)N2CCN(C(=O)CCn3ccc4ccccc43)CC2)cc1,inactive: -18%,
Cc1c(NC(=O)c2ccc(OC(C)C)cc2)cccc1-c1nc2ncccc2o1,,"inconclusive: 39.8 µM [inhibitor, single point]"
COc1cc2c(=O)n(CCC(=O)NCC3CCCO3)c(=O)n(CC(=O)Nc3ccc(C)cc3)c2cc1OC (stereo unspecified),,"inconclusive: 2.82 µM [inhibitor, full curve, poor fit]"
CC1(C(=O)NCc2ccccc2)Cn2c(ccc2-c2ccco2)C(=O)N1Cc1ccccc1 (stereo unspecified),,"inconclusive: 20 µM [inhibitor, partial curve, poor fit]"
O=C(C1CCCCC1)N1CCC(Cc2ccccc2)(C(=O)O)CC1,inactive: -0.0199% [at 149 µM],
COCCNC(=O)C1(C)CN(C)Cc2ccc(Nc3cccc(OC)c3)nc21 (stereo unspecified),,"inconclusive: 28.2 µM [inhibitor, partial curve]"
COCC(=O)Nc1c(C(=O)OC)n(CCCc2ccccc2)c2ncc(NC(C)CCO)cc12 (stereo unspecified),,"inconclusive: 28.2 µM [inhibitor, partial curve, poor fit]"
CCn1ccnc1CN(C)Cc1cccc(OCC(O)CN(C)C2CCCCC2)c1 (stereo unspecified),,"inconclusive: 15.8 µM [inhibitor, partial curve, poor fit]"
Cc1ccc2c(C(=O)NCCN3CCCCC3)cc(NC(=O)C(C)C)cc2n1,,active: 22.4 µM
Cc1ccc(NC(=O)CNc2nc(Nc3ccc(C)cc3)nc(Nc3ccc(C)cc3)n2)cc1,,"inconclusive: 39.8 µM [inhibitor, single point]"
COc1ccc2c(c1)cc(C(=O)N[C@H](C(=O)N1CCC(C(=O)O)CC1)C(C)C)n2C,,"inconclusive: 25.1 µM [inhibitor, partial curve, poor fit]"
CCCN1CCN(C(=O)Cn2nc(C)c3sc(-c4ccccc4)nc3c2=O)CC1,,active: 31.6 µM
CCOc1ccccc1/C=C/c1onc(C)c1S(=O)(=O)N1CCC(C(=O)N(CC)CC)CC1,,"inconclusive: 15.8 µM [inhibitor, partial curve, poor fit]"
N#Cc1ccc(OCCSCc2cccc3ccccc23)cc1,inactive: 20.2%,
C=CCOC(=O)Nc1nc2c(s1)C[C@@H]1[C@](C)(CO)[C@H](O)CC[C@@]1(C)[C@@H]2CC(=O)NC1CCCCC1,,"inconclusive: 25.1 µM [inhibitor, partial curve, poor fit]"
O=C(c1ccoc1)N1CCC[C@H](n2c(=O)n(Cc3ccccc3)c3cccnc32)C1,inactive: -13.7%,
CC(=O)c1ccc(NC(=O)c2ccccc2SC(C)C)cc1,inactive: 2.56%,
O=C(CCC(=O)n1ncc2c(Cl)cccc21)N1CCC(Cc2nc(C3CCOCC3)no2)CC1,,"inconclusive: 17.8 µM [inhibitor, single point]"
OCc1ccc(CN2CCC[C@H]2c2nc(-c3ccc(N4CCOCC4)nc3)no2)o1,,"inconclusive: 35.5 µM [inhibitor, partial curve, poor fit]"
O=C(O)/C=C/C(=O)c1ccccc1,,"inconclusive: 20 µM [inhibitor, partial curve, poor fit]"
CC[C@H]1CN(S(=O)(=O)c2ccc(OC)cc2)CC[C@H]1CC(=O)O,inactive: -11.8% [at 86.2 µM],

Structure (SMILES),"activity change, negative = inhibition",Potency
Cc1ccsc1C(=O)Oc1ccc(-c2ccc(C#N)cc2)cc1,inactive: -4.03%,
COc1ccc(C)cc1NC(=O)c1cc(S(=O)(=O)NC2CCCCCC2)ccc1F,,"inconclusive: 35.5 µM [inhibitor, single point]"
Cc1cc(C(c2ccccc2Cl)N2CCN(C)CC2)c(NC(=O)c2ccco2)s1 (stereo unspecified),inactive: -21.2%,
CC1CCCCN1CCCNC(=O)Cn1ncc2c([nH]c3ccccc32)c1=O (stereo unspecified),,"inconclusive: 28.2 µM [inhibitor, partial curve, poor fit]"
CN(C)CC(=O)N1CCC2(C1)CN(C)c1ccc(C(=O)NCc3cccs3)cc12 (stereo unspecified),,active: 39.8 µM
Cc1cccc(CNS(=O)(=O)c2ccc3[nH]c(=O)ccc3c2)c1,,"inconclusive: 25.1 µM [inhibitor, partial curve, poor fit]"
NC(=O)c1cc(S(=O)(=O)N2CCN(c3ccc(F)cc3)CC2)cs1,inactive: 3.16%,
Cc1cc(C)n2nc(C)c(C(=O)N3CCCC(c4cccc(C(=O)O)c4)C3)c2n1 (stereo unspecified),,active: 31.6 µM
CN1[C@@H](CCC(=O)N2CCCC2)CNC(=O)[C@@H]2[C@H]1CCN2Cc1ccc(S(C)(=O)=O)cc1,,"inconclusive: 20 µM [inhibitor, partial curve, poor fit]"
O=C(COc1ccccc1F)OCc1cc(=O)n2nc(-c3cccs3)sc2n1,,"inconclusive: 1.12 µM [inhibitor, full curve, poor fit]"
CCOc1cccc(CNC(=O)c2ccc(Cn3ccn4nc5c(c4c3=O)CCCC5)cc2)c1,,"inconclusive: 28.2 µM [inhibitor, partial curve, poor fit]"
COc1ccc([N+](=O)[O-])cc1NC(=O)COC(=O)c1ccc2c(c1)NC(=O)CS2,inactive: 13.7%,
NCCO[C@H]1C[C@@H](O)C12CCN(Cc1ccc(OC(F)F)cc1)CC2,inactive: 7.43%,
COC(=O)[C@@H]1Cc2nc[nH]c2CN1Cc1ccc([N+](=O)[O-])cc1,,active: 28.2 µM
O=[N+]([O-])c1cccc(-c2noc([C@@H]3Cc4nc[nH]c4CN3Cc3ccc(F)cc3)n2)c1,,"inconclusive: 39.8 µM [inhibitor, partial curve]"
CCOc1ccc(C(=O)Nc2cccc(NC(=O)c3ccco3)c2)cc1Cl,,"inconclusive: 39.8 µM [inhibitor, single point]"
COc1cc2ccccc2cc1C(=O)Nc1nnc(C2CCCCC2)s1,,"inconclusive: 3.98 µM [inhibitor, full curve, poor fit]"
COc1ccccc1CNC(=O)c1ccc(N2CCCC2)c(NC(=O)NCc2ccccc2)c1,,"inconclusive: 50.1 µM [inhibitor, single point]"
CCN1CCN(c2oc(-c3ccco3)nc2C#N)CC1,,"inconclusive: 2 µM [inhibitor, full curve, poor fit]"
CCc1ccc(NC(=O)N2CCc3cc(S(=O)(=O)N4CCC(C)CC4)ccc32)cc1,inactive: 16%,
